From PubChem BioAssay AID504702 (Southern Research Specialized Biocontainment Screening …, 2011)
Certain results were filed several times, with different values. The other results are left out here. There may be further records. Values that stand side by side repeat one measurement across runs, samples, wells, individuals or studies. Brackets tell where a record comes from. A, B and so on number the origins entry by entry.

Tested on: M. tuberculosis H37Rv with meropenem, growth inhibition
Test: M. tuberculosis growth inhibition with meropenem, dose response, H37Rv, set 2 (AID 504702);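 further: growth read by Alamar Blue after 7 days plus overnight incubation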

Compound	IC50
COc1ccc2oc(C(=O)Nc3nc4ccccc4[nH]3)c(C)c2c1	160 nM [sample A] and 10.5 µM [sample B]
CCOC(=O)c1cnc2cc(-c3ccc(C(C)(C)C)cc3)nn2c1N	180 nM [sample A] and 1.99 µM [sample B]
